Kd data for 10 molecules are collected here from US20250333542A1 (Hoffmann-La Roche, published 2025).

The chains are these.
T1: Fc (kih)-IFNGR1 monomer (P1AF7104) (UniProt P15260 18-245)
T1 construct: Used as the soluble analyte in SPR; not shown: Fc (kih) part
T1 sequence (P15260 whole entry, species assumed, looked up): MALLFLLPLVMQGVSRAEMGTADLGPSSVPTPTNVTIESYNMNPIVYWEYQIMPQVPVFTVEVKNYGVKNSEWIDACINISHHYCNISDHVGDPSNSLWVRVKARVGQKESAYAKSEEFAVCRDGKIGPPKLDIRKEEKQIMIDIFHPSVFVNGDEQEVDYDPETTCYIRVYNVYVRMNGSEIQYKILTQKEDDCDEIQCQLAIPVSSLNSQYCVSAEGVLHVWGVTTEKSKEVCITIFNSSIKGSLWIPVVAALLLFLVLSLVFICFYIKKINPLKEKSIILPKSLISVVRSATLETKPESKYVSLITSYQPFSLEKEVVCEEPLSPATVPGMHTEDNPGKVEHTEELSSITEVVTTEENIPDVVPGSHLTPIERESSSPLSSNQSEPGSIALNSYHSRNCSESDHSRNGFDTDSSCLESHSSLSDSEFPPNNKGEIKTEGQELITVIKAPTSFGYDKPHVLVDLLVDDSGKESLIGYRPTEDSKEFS

T2: Fc (kih)-IFNGR1/2 heterodimer (P1AF8126) (UniProt P15260 18-245; P38484 28-247, limits assumed)
T2 construct: Used as the soluble analyte in SPR; also called Fc (kih)-IFNGR1/R2 heterodimer; IFNGR1/R2; not shown: Fc (kih) chain
T2 sequence (looked up) 1: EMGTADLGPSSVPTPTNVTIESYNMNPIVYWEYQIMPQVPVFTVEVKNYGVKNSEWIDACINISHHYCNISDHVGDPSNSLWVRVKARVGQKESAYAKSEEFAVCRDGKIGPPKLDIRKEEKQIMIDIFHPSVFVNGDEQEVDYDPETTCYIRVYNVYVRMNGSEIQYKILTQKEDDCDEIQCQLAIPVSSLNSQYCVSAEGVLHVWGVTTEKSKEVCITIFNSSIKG
T2 sequence (looked up) 2: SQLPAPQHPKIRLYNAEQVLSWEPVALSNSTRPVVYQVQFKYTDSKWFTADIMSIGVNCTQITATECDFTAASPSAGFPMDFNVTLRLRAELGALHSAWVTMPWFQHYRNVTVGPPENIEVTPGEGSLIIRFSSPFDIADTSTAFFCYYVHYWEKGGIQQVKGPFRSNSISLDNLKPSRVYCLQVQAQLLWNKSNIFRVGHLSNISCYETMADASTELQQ

B1: P1AF9481 (anti-FAP 4B9 IgG-IFNG, C-terminus AKTGPRPRP) (other)
heavy: EVQLLESGGGLVQPGGSLRLSCAASGFTFSSYAMSWVRQAPGKGLEWVSAIIGSGASTYYADSVKGRFTISRDNSKNTLYLQMNSLRAEDTAVYYCAKGWFGGFNYWGQGTLVTVSSASTKGPSVFPLAPSSKSTSGGTAALGCLVKDYFPEPVTVSWNSGALTSGVHTFPAVLQSSGLYSLSSVVTVPSSSLGTQTYICNVNHKPSNTKVDKKV[human IgG1 Fc with changes skipped]GGGGSGGGGSGGGGSQDPYVKEAENLKKYFNAGHSDVADNGTLFLGILKNWKEESDRKIMQSQIVSFYFKLFKNFKDDQSIQKSVETIKEDMNVKFFNSNKKKRDDFEKLTNYSVTDLNVQRKAIHELIQVMAELSPAAKTGPRPRP
light: EIVLTQSPGTLSLSPGERATLSCRASQSVTSSYLAWYQQKPGQAPRLLINVGSRRATGIPDRFSGSGSGTDFTLTISRLEPEDFAVYYCQQGIMLPPTFGQGTKVEIKRTVAAPSVFIFPPSDEQLKSGTASVVCLLNNFYPREAKVQWKVDNALQSGNSQESVTEQDSKDSTYSLSSTLTLSKADYEKHKVYACEVTHQGLSSPVTKSFNRGEC
notes: Antibody-cytokine fusion, IgG1 P329G LALA, (G4S)3 linker; P in positions 1 and 3 of KRKR
B2: P1AG1310 (FAP 4B9 IgG - linker 1 - IFNG KRKRP, unmasked) (other)
heavy: EVQLLESGGGLVQPGGSLRLSCAASGFTFSSYAMSWVRQAPGKGLEWVSAIIGSGASTYYADSVKGRFTISRDNSKNTLYLQMNSLRAEDTAVYYCAKGWFGGFNYWGQGTLVTVSSASTKGPSVFPLAPSSKSTSGGTAALGCLVKDYFPEPVTVSWNSGALTSGVHTFPAVLQSSGLYSLSSVVTVPSSSLGTQTYICNVNHKPSNTKVDKKV[human IgG1 Fc with changes skipped]GGGGSGGGGSGGGGSGGGGSGGGGSGGGGGQDPYVKEAENLKKYFNAGHSDVADNGTLFLGILKNWKEESDRKIMQSQIVSFYFKLFKNFKDDQSIQKSVETIKEDMNVKFFNSNKKKRDDFEKLTNYSVTDLNVQRKAIHELIQVMAELSPAAKTGKRKRP
light: B1 light
B3: P1AF9486 (anti-FAP 4B9 IgG-IFNG, C-terminus AKTGKRKEP) (other)
heavy: EVQLLESGGGLVQPGGSLRLSCAASGFTFSSYAMSWVRQAPGKGLEWVSAIIGSGASTYYADSVKGRFTISRDNSKNTLYLQMNSLRAEDTAVYYCAKGWFGGFNYWGQGTLVTVSSASTKGPSVFPLAPSSKSTSGGTAALGCLVKDYFPEPVTVSWNSGALTSGVHTFPAVLQSSGLYSLSSVVTVPSSSLGTQTYICNVNHKPSNTKVDKKV[human IgG1 Fc with changes skipped]GGGGSGGGGSGGGGSQDPYVKEAENLKKYFNAGHSDVADNGTLFLGILKNWKEESDRKIMQSQIVSFYFKLFKNFKDDQSIQKSVETIKEDMNVKFFNSNKKKRDDFEKLTNYSVTDLNVQRKAIHELIQVMAELSPAAKTGKRKEP
light: B1 light
notes: Antibody-cytokine fusion, IgG1 P329G LALA, (G4S)3 linker; E in position 4 of KRKR
B4: P1AF9490 (anti-FAP 4B9 IgG-IFNG, C-terminus AKTGKEKEP) (other)
heavy: EVQLLESGGGLVQPGGSLRLSCAASGFTFSSYAMSWVRQAPGKGLEWVSAIIGSGASTYYADSVKGRFTISRDNSKNTLYLQMNSLRAEDTAVYYCAKGWFGGFNYWGQGTLVTVSSASTKGPSVFPLAPSSKSTSGGTAALGCLVKDYFPEPVTVSWNSGALTSGVHTFPAVLQSSGLYSLSSVVTVPSSSLGTQTYICNVNHKPSNTKVDKKV[human IgG1 Fc with changes skipped]GGGGSGGGGSGGGGSQDPYVKEAENLKKYFNAGHSDVADNGTLFLGILKNWKEESDRKIMQSQIVSFYFKLFKNFKDDQSIQKSVETIKEDMNVKFFNSNKKKRDDFEKLTNYSVTDLNVQRKAIHELIQVMAELSPAAKTGKEKEP
light: B1 light
notes: Antibody-cytokine fusion, IgG1 P329G LALA, (G4S)3 linker; E in positions 2 and 4 of KRKR
B5: P1AF9489 (anti-FAP 4B9 IgG-IFNG, C-terminus AKTGERERP) (other)
heavy: EVQLLESGGGLVQPGGSLRLSCAASGFTFSSYAMSWVRQAPGKGLEWVSAIIGSGASTYYADSVKGRFTISRDNSKNTLYLQMNSLRAEDTAVYYCAKGWFGGFNYWGQGTLVTVSSASTKGPSVFPLAPSSKSTSGGTAALGCLVKDYFPEPVTVSWNSGALTSGVHTFPAVLQSSGLYSLSSVVTVPSSSLGTQTYICNVNHKPSNTKVDKKV[human IgG1 Fc with changes skipped]GGGGSGGGGSGGGGSQDPYVKEAENLKKYFNAGHSDVADNGTLFLGILKNWKEESDRKIMQSQIVSFYFKLFKNFKDDQSIQKSVETIKEDMNVKFFNSNKKKRDDFEKLTNYSVTDLNVQRKAIHELIQVMAELSPAAKTGERERP
light: B1 light
notes: Antibody-cytokine fusion, IgG1 P329G LALA, (G4S)3 linker; E in positions 1 and 3 of KRKR
B6: P1AF9485 (anti-FAP 4B9 IgG-IFNG, C-terminus AKTGKRERP) (other)
heavy: EVQLLESGGGLVQPGGSLRLSCAASGFTFSSYAMSWVRQAPGKGLEWVSAIIGSGASTYYADSVKGRFTISRDNSKNTLYLQMNSLRAEDTAVYYCAKGWFGGFNYWGQGTLVTVSSASTKGPSVFPLAPSSKSTSGGTAALGCLVKDYFPEPVTVSWNSGALTSGVHTFPAVLQSSGLYSLSSVVTVPSSSLGTQTYICNVNHKPSNTKVDKKV[human IgG1 Fc with changes skipped]GGGGSGGGGSGGGGSQDPYVKEAENLKKYFNAGHSDVADNGTLFLGILKNWKEESDRKIMQSQIVSFYFKLFKNFKDDQSIQKSVETIKEDMNVKFFNSNKKKRDDFEKLTNYSVTDLNVQRKAIHELIQVMAELSPAAKTGKRERP
light: B1 light
notes: Antibody-cytokine fusion, IgG1 P329G LALA, (G4S)3 linker; E in position 3 of KRKR
B7: P1AF9483 (anti-FAP 4B9 IgG-IFNG, C-terminus AKTGERKRP) (other)
heavy: EVQLLESGGGLVQPGGSLRLSCAASGFTFSSYAMSWVRQAPGKGLEWVSAIIGSGASTYYADSVKGRFTISRDNSKNTLYLQMNSLRAEDTAVYYCAKGWFGGFNYWGQGTLVTVSSASTKGPSVFPLAPSSKSTSGGTAALGCLVKDYFPEPVTVSWNSGALTSGVHTFPAVLQSSGLYSLSSVVTVPSSSLGTQTYICNVNHKPSNTKVDKKV[human IgG1 Fc with changes skipped]GGGGSGGGGSGGGGSQDPYVKEAENLKKYFNAGHSDVADNGTLFLGILKNWKEESDRKIMQSQIVSFYFKLFKNFKDDQSIQKSVETIKEDMNVKFFNSNKKKRDDFEKLTNYSVTDLNVQRKAIHELIQVMAELSPAAKTGERKRP
light: B1 light
notes: Antibody-cytokine fusion, IgG1 P329G LALA, (G4S)3 linker; E in position 1 of KRKR
B8: P1AF9482 (anti-FAP 4B9 IgG-IFNG, C-terminus AKTGKPKPP) (other)
heavy: EVQLLESGGGLVQPGGSLRLSCAASGFTFSSYAMSWVRQAPGKGLEWVSAIIGSGASTYYADSVKGRFTISRDNSKNTLYLQMNSLRAEDTAVYYCAKGWFGGFNYWGQGTLVTVSSASTKGPSVFPLAPSSKSTSGGTAALGCLVKDYFPEPVTVSWNSGALTSGVHTFPAVLQSSGLYSLSSVVTVPSSSLGTQTYICNVNHKPSNTKVDKKV[human IgG1 Fc with changes skipped]GGGGSGGGGSGGGGSQDPYVKEAENLKKYFNAGHSDVADNGTLFLGILKNWKEESDRKIMQSQIVSFYFKLFKNFKDDQSIQKSVETIKEDMNVKFFNSNKKKRDDFEKLTNYSVTDLNVQRKAIHELIQVMAELSPAAKTGKPKPP
light: B1 light
notes: Antibody-cytokine fusion, IgG1 P329G LALA, (G4S)3 linker; P in positions 2 and 4 of KRKR
B9: P1AF9488 (anti-FAP 4B9 IgG-IFNG, C-terminus AKTGKREEP) (other)
heavy: EVQLLESGGGLVQPGGSLRLSCAASGFTFSSYAMSWVRQAPGKGLEWVSAIIGSGASTYYADSVKGRFTISRDNSKNTLYLQMNSLRAEDTAVYYCAKGWFGGFNYWGQGTLVTVSSASTKGPSVFPLAPSSKSTSGGTAALGCLVKDYFPEPVTVSWNSGALTSGVHTFPAVLQSSGLYSLSSVVTVPSSSLGTQTYICNVNHKPSNTKVDKKV[human IgG1 Fc with changes skipped]GGGGSGGGGSGGGGSQDPYVKEAENLKKYFNAGHSDVADNGTLFLGILKNWKEESDRKIMQSQIVSFYFKLFKNFKDDQSIQKSVETIKEDMNVKFFNSNKKKRDDFEKLTNYSVTDLNVQRKAIHELIQVMAELSPAAKTGKREEP
light: B1 light
notes: Antibody-cytokine fusion, IgG1 P329G LALA, (G4S)3 linker; E in positions 3 and 4 of KRKR
B10: P1AF9484 (anti-FAP 4B9 IgG-IFNG, C-terminus AKTGKEKRP) (other)
heavy: EVQLLESGGGLVQPGGSLRLSCAASGFTFSSYAMSWVRQAPGKGLEWVSAIIGSGASTYYADSVKGRFTISRDNSKNTLYLQMNSLRAEDTAVYYCAKGWFGGFNYWGQGTLVTVSSASTKGPSVFPLAPSSKSTSGGTAALGCLVKDYFPEPVTVSWNSGALTSGVHTFPAVLQSSGLYSLSSVVTVPSSSLGTQTYICNVNHKPSNTKVDKKV[human IgG1 Fc with changes skipped]GGGGSGGGGSGGGGSQDPYVKEAENLKKYFNAGHSDVADNGTLFLGILKNWKEESDRKIMQSQIVSFYFKLFKNFKDDQSIQKSVETIKEDMNVKFFNSNKKKRDDFEKLTNYSVTDLNVQRKAIHELIQVMAELSPAAKTGKEKRP
light: B1 light
notes: Antibody-cytokine fusion, IgG1 P329G LALA, (G4S)3 linker; E in position 2 of KRKR

The target in one assay is T1, Fc (kih)-IFNGR1 monomer (P1AF7104). Nature of the assay: SPR, compound immobilised, Fc(kih)-IFNGR1 monomer as analyte; apparent affinity. On the technique in general: In SPR one partner is held on a chip, and binding of the other changes the refractive index at the surface.
As to B1, the Kd was found to be 977 nM.
B2: the Kd stood at 475 nM.
As for B3, the Kd came out at 1370 nM.
B4: the Kd is 216000 nM.
B5: the Kd came to 10700 nM.
Turning to B6, the Kd stood at 1200 nM.
Turning to B7, the Kd is 3160 nM.
For the molecule B8, the Kd amounted to 2710 nM.
For B9, the Kd was found to be 6220 nM.
With B10, the Kd amounted to 3260 nM.

The target in a further assay is T2, Fc (kih)-IFNGR1/2 heterodimer (P1AF8126). Nature of the assay: SPR, compound immobilised, Fc(kih)-IFNGR1/2 heterodimer as analyte; apparent affinity.
In the case of B1, the Kd is 486 nM.
As for B2, the Kd turned out to be 167 nM.
For B3, the Kd worked out at 598 nM.
For B4, the Kd came to 4750 nM.
The same measure, in the same setting: the value for B5 was 5960 nM.
As to B6, the Kd is 608 nM.
In the case of B7, the Kd turned out to be 1080 nM.
B8: the Kd amounted to 950 nM.
In the case of B9, the Kd turned out to be 2870 nM.
On the same count and under the same terms, for B10 the value was 1150 nM.
